Where “and” joins values, the source holds several entries; their conditions need not be identical. Equal values may be shown once.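 Tested at 5 concentrations; 48 h exposure; 96-well plates; endpoints linearly interpolated, else capped at highest concentration. Here, GI50 denotes the concentration required for 50% inhibition of growth. At the TGI there is no net growth.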
System: NCI-H322M lung
Assay: DTP human tumour cell line panel, 48 h

| Compound | TGI | GI50 |
| --- | --- | --- |
| Cn1cnc([N+](=O)[O-])c1Sc1nc(N)nc2c1ncn2C1OC(CO)C(O)C1O (stereo unspecified) | > 100 µM |  |
| COc1ccc(N=Nc2c(C)c(C#N)c(=S)n(C3OC(CO)C(O)C(O)C3O)c2-c2ccccc2)cc1 (stereo unspecified) | > 100 µM |  |
| COc1ccc(C2NC(=S)Nc3c2c(=O)oc2c3ccc3ccccc32)cc1 (stereo unspecified) | > 100 µM |  |
| O=c1ccc2nc3cc(Br)ccc3sc-2c1 | > 100 µM |  |
| COc1ccc2nc3c(C(=O)NCCN(C)C)cccc3cc2c1 | 6.5 µM |  |
| N#CC12Cc3cc4c(cc3-c3cccc(c31)CCN2C(=O)c1ccccc1)OCO4 (stereo unspecified) | > 100 µM |  |
| Fc1cc2[nH]ncc2c2c3c(c(-c4cn[nH]c4C(F)(F)F)nc12)CCCC3 | 8 µM | 2.14 µM |
| COP(=O)(OC)C(=O)N1N(c2ccc([N+](=O)[O-])cc2)C(=O)C(C)NC1(NNc1ccc([N+](=O)[O-])cc1)P(=O)(OC)OC (stereo unspecified) | > 100 µM |  |
| NS(=O)(=O)c1ccc(Nc2cc(-c3cccc(O)c3)[nH]n2)cc1 | > 25 µM | > 25 µM |
| CC1=CC(=O)C2=C(C)CCC3C(C)C(=O)OC3C12 (stereo unspecified) | > 100 µM |  |
| COc1ccc(C(=O)C2=NON3OC23C(=O)c2ccc(OC)cc2)cc1 (stereo unspecified) | > 100 µM |  |
| CN(c1ncccc1CNc1nc(Nc2ccc3c(c2)CC(=O)N3)ncc1C(F)(F)F)S(C)(=O)=O | 17.3 µM and > 10 µM | 2.24 µM and 3.03 µM |
| CCN(Cc1ccc(C)cc1)c1ccc(CO)c(Cl)c1 | 25.1 µM | 11.6 µM |
| CC(=O)O[C@H]1C(=O)[C@@]2(C)C(C(OC(=O)c3ccccc3)[C@]3(O)C[C@H](OC(=O)C(OC(=O)CCCC(=O)NCCCN(C)C)C(NC(=O)c4ccccc4)c4ccccc4)C(C)=C1C3(C)C)C1(OC(C)=O)COC1C[C@@H]2O (stereo partly specified) | > 86.8 µM |  |
| CCCCCCCCCCCCCCCCCc1cccc(OCOCCOC)c1C(=O)O | 35.7 µM |  |
| CC(O)(Cc1ccccc1C#N)Cc1ccccc1C#N | > 100 µM |  |
| C#C[C@]1(O)CC[C@H]2[C@@H]3CCC4=C/C(=N/OCCN(C)C)CC[C@]4(C)[C@H]3CC[C@@]21C | > 100 µM |  |
| CC(=O)C(=[N+]=[N-])C(=O)N1CCOC1=O | > 10 µM |  |
| O=C(O)CCCC(=O)Nn1c(Cc2ccc(Cl)cc2)n[nH]c1=O | > 100 µM |  |
| COc1cc(Nc2nc3cc(N)cc(N)c3nc2-c2ccccc2)cc(OC)c1OC | 78.6 µM |  |
| CC(ON(C(c1ccccc1)C(C)C)C(C)(C)C)c1ccccc1 (stereo unspecified) | 58.3 µM |  |
| O=C1C2Nc3ccccc3SC2C(=O)N1c1ccc(Br)cc1 (stereo unspecified) | > 100 µM |  |
| CC(C)OC(=O)c1ccc(CCC2=CC(=O)C=CC2=O)cc1 | 92.6 µM |  |

| Compound | TGI | GI50 |
| --- | --- | --- |
| O=C(/C=C/c1cc(Cl)cc(Cl)c1O)c1cccc(O)c1 | > 100 µM |  |
| O=C1NC(Cc2ccc(O)cc2)C(=O)N2CCCC12 (stereo unspecified) | > 100 µM |  |
| COc1ccccc1NC(=S)N/N=C/c1c(C)n(C)n(-c2ccccc2)c1=O | > 100 µM |  |
| Nc1nc2c3nc(Nc4ccccc4)sc3nc(=S)n2c2sc(Nc3ccccc3)nc12 | > 100 µM |  |
| O=C(Oc1cccc2cccnc12)c1cc2c(cc1Cl)SC(N(c1ccc(F)cc1)S(=O)(=O)c1ccc(Br)s1)=NS2(=O)=O | > 100 µM | 41.2 µM |
| CC(C)(O)[C@@H]1CC[C@@]2(C)CCCC(O)C2(O)C1 (stereo partly specified) | > 100 µM |  |
| CC(C)(Br)C(=O)N1CCN(C(c2ccccc2)c2ccccc2)CC1 | 34.8 µM |  |
| COc1cc(C2Cc3ncccc3-c3[nH]c(=O)c4cccnc4c32)cc(OC)c1OC (stereo unspecified) | > 100 µM | 6.58 µM |
| CCN1C(=S)N(c2ccccc2)C2NC(=S)N(/N=C/C=C/c3ccccc3OC)C21 (stereo unspecified) | > 100 µM | 0.751 µM |
| COC(=O)C1CCC(=O)N1CN(C(C)=O)c1ccccc1Cl (stereo unspecified) | > 100 µM |  |
| Cc1cc(S(=O)(=O)Nc2nc3ccccc3o2)c(SCc2ccccc2)cc1Cl | 41 µM | 18.4 µM |
| COC(=O)/C=C1\C(=O)N(C(C)=O)c2ccc(Br)cc21 | 36.3 µM |  |
| C=C=C(CC1CCCCC1=O)S(=O)(=O)c1ccccc1 (stereo unspecified) | > 10 µM |  |
| COc1c(CC=C(C)C)c(O)c(C(CC(C)C)c2c(O)c3c(c(C(C)=O)c2O)OC(C(C)(C)O)C3)c(O)c1C(C)=O (stereo unspecified) | > 12.5 µM |  |
| c1cc(NNc2cccc(-c3nn[nH]n3)c2)cc(-c2nn[nH]n2)c1 | > 100 µM |  |
| CC(=O)Nc1ccc(NCC(=O)Nn2cnc3ccc(S(=O)(=O)Nc4ccc(NC(C)=O)cc4)cc3c2=O)cc1 | > 100 µM |  |
| COc1ccc2c(c1OC)C[C@@H]1c3c(cc4c(c3-2)OCO4)CCN1C | > 100 µM |  |
| Cn1c2c(c3ccccc31)CCN(CCCCN1CCCCC1)C2=O | > 100 µM |  |
| O=c1[nH]c(Cc2ccccc2)nc2c1sc1nc3ccccc3n12 | > 100 µM |  |
| Cc1cc(S(=O)(=O)Nc2n[nH]c(Nc3ccc(Cl)cc3)n2)c(S)cc1Cl | > 100 µM |  |
| NNC(=S)N/N=C(\C(=O)Nc1cccc(O)c1)C1C(=O)NC(=S)NC1=O | > 100 µM |  |
| CCOC(=O)C1Cc2c(cc3c4c(cccc24)N(C(C)=O)C3)N(C)C1 (stereo unspecified) | > 100 µM |  |
| S=c1[nH]nc(CNc2ccc(-c3n[nH]c(=S)n3-c3ccc(Cl)cc3)cc2)n1-c1ccc(Cl)cc1 | 63 µM |  |

| Compound | TGI | GI50 |
| --- | --- | --- |
| CCN1C/C(=C\c2cc(OC)c(OC)cc2OC)C(=O)/C(=C/c2cc(OC)c(OC)cc2OC)C1 | 16.5 µM | 4.11 µM |
| Cc1ccc(NC(Nc2ccc(C)cc2C)=C(C(Cl)=C(Cl)Cl)[N+](=O)[O-])c(C)c1 | 33.8 µM |  |
| CC(C)C1C(=O)N(c2c(F)c(F)c(F)c(F)c2F)C(=S)N1CCS(=O)c1ccccc1 (stereo unspecified) | 31.1 µM |  |
| COCCNCc1ccc(-c2cc3nccc(Oc4ccc(NC(=S)NC(=O)Cc5ccc(F)cc5)cc4F)c3s2)nc1 | 8.26 µM | 2.67 µM |
| CN1C(=O)CCC1(O)C1C=CC=CC1 (stereo unspecified) | > 100 µM |  |
| C=CCn1c(-c2ccc([N+](=O)[O-])cc2)cs/c1=N\C(P(=O)(O)O)P(=O)(O)O | > 100 µM |  |
| Cc1cn([C@@H]2C[C@@H]2CO)c(=O)[nH]c1=O | > 100 µM |  |
| CCCNC(=S)/N=C/c1c(O)cc(C)oc1=O | > 100 µM |  |
| CC(C)OP(=O)(OC(C)C)/C(Cl)=N/Nc1ccc([N+](=O)[O-])cc1 | > 100 µM |  |
| COc1nc2[nH]ccc2c(=O)[nH]1 | > 100 µM |  |
| CC(C)=CCC[C@]1(C)C=Cc2c(O)c3c(c(CC=C(C)C)c2O1)O[C@]12C(=C[C@@H]4CC1C(C)(C)O[C@@]2(C/C=C(/C)C(=O)O)C4=O)C3=O | 5.98 µM |  |
| CN(C)c1ccc(C=Nc2ccc(Oc3ccc(Cl)cc3)c(Cl)c2)cc1 | 53.1 µM |  |
| O=Nc1ccc(O)c(=O)cc1 | 32.9 µM | 9.58 µM |
| CCC(C)[C@H]1O[C@]2(CC[C@@H]1C)C[C@@H]1C[C@@H](C/C=C(\C)[C@@H](OC3C[C@H](OC)C(O[C@H]4C[C@H](OC)[C@@H](O)[C@H](C)O4)[C@H](C)O3)[C@@H](C)/C=C/C=C3\CO[C@@H]4[C@H](O)C(C)=C[C@@H](C(=O)O1)[C@]34O)O2 (stereo partly specified) | 15.4 µM | 3.36 µM |
| COC(=O)CCC(NC(=S)N/N=C(\C)c1cnc2ccccc2n1)C(=O)OC (stereo unspecified) | > 100 µM |  |
| COC(=O)C(N)CCCC(N)C(=O)NC(C)C(=O)NC(CCC(=O)NCCNCCNc1c2ccccc2nc2cccc([N+](=O)[O-])c12)C(N)=O (stereo unspecified) | 58.5 µM |  |
| COc1ccc(C2N(c3ccc(F)cc3)C(=O)N3C(c4ccc(OC)cc4)N(c4ccc(F)cc4)C(=O)N23)cc1 (stereo unspecified) | > 100 µM |  |
| CC(Nc1ncc2c(n1)-c1ccccc1OC2)C(=O)O (stereo unspecified) | > 100 µM |  |
| COc1ccc(C2=N[C@@H](Cc3ccccc3)C(=O)Nc3ccsc32)cc1 | 48.7 µM | 7.46 µM |
| Cc1ccc(S(=O)(=O)NC(=O)NCCc2cnc[nH]2)cc1 | > 100 µM |  |
| COc1ccc(/C=C/C(=O)c2cc(OC)c(OC)c(OC)c2)cc1OCC(=O)Nc1nc2ccc(OC(F)(F)F)cc2s1 | 13 µM | 2.77 µM |
